From paper PMC9911399, “Two distinct binding modes provide the RNA-binding protein RbFox with extraordinary sequence specificity”
Numbering of substitutions follows the chain as printed; changes in the protein carry UniProt numbers. Some of the results follow.

T1: RBFOX1 RRM (Homo sapiens, UniProt Q9NWB1 109-208)
T1 sequence: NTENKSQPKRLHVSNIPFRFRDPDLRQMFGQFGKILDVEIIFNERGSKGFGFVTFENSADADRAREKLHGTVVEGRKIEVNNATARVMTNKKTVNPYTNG

B1: UAUCUAG (DNA:RNA)
RNA: GGGAGACCGGAAUUCAGAUUGUCCUAUCUAGUUAAAUCCCGUCGUAGCCACCA
DNA 1: CAATCTGAATTCCGGTCTCCC
DNA 2: TGGTGGCTACGACGGGATT
B2: UCGUUCU (DNA:RNA)
RNA: B1 RNA with A26C, U27G, C28U, A30C, G31U
DNA 1: CAATCTGAATTCCGGTCTCCC
DNA 2: TGGTGGCTACGACGGGATT
B3: UAGCUAA (DNA:RNA)
RNA: B1 RNA with U27G, G31A
DNA 1: CAATCTGAATTCCGGTCTCCC
DNA 2: TGGTGGCTACGACGGGATT
B4: UAGAGAC (DNA:RNA)
RNA: B1 RNA with U27G, C28A, U29G, G31C
DNA 1: CAATCTGAATTCCGGTCTCCC
DNA 2: TGGTGGCTACGACGGGATT
B5: UCCACUA (DNA:RNA)
RNA: B1 RNA with A26C, U27C, C28A, U29C, A30U, G31A
DNA 1: CAATCTGAATTCCGGTCTCCC
DNA 2: TGGTGGCTACGACGGGATT
B6: GCGUAUA (DNA:RNA)
RNA: GGGAGACCGGAAUUCAGAUUGUCCGCGUAUAUUAAAUCCCGUCGUAGCCACCA
DNA 1: CAATCTGAATTCCGGTCTCCC
DNA 2: TGGTGGCTACGACGGGATT
B7: UAUCCAC (DNA:RNA)
RNA: B1 RNA with U29C, G31C
DNA 1: CAATCTGAATTCCGGTCTCCC
DNA 2: TGGTGGCTACGACGGGATT
B8: UAUGGCA (DNA:RNA)
RNA: B1 RNA with C28G, U29G, A30C, G31A
DNA 1: CAATCTGAATTCCGGTCTCCC
DNA 2: TGGTGGCTACGACGGGATT
B9: CUGAAAA (DNA:RNA)
RNA: B6 RNA with G25C, C26U, U28A, U30A
DNA 1: CAATCTGAATTCCGGTCTCCC
DNA 2: TGGTGGCTACGACGGGATT

molecular target: T1, RBFOX1 RRM; experiment: EMSA; HiTS-Eq, 1 nM pool, 10 min; buffer printed only for the single-RNA assays: 10 mM Tris pH 7.5, 150 mM NaCl, 3.4 mM EDTA, 0.001% NP-40, 30 C; conditions: tags: His6 N-terminal (pET28a); label: 5' 32P
In short: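 Purified wild-type or mutant RbFox RRM at increasing concentrations was equilibrated with 1 nM of 5′-radiolabelled RNA carrying 7 randomized nucleotides for 10 min in 50 µL. Unbound RNA was separated by 8% native PAGE and sequenced. Relative association constants came from read-count changes of each RNA species compared with the control reaction, normalised to the cognate motif.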

Binder	binding signal
B1	0.0127 KA relative to UGCAUGU
B2	0.0131 KA relative to UGCAUGU
B3	0.00764 KA relative to UGCAUGU
B4	0.00401 KA relative to UGCAUGU
B5	0.00104 KA relative to UGCAUGU
B6	0.00415 KA relative to UGCAUGU
B7	0.00383 KA relative to UGCAUGU
B8	0.0149 KA relative to UGCAUGU
B9	0.00841 KA relative to UGCAUGU
